The source of these data is publication PMC12136788.

This is one part of the list.

First the molecules themselves.
T1: UNK ZnF1-3 (human, UniProt Q9C0B0 31-174)
T1 sequence: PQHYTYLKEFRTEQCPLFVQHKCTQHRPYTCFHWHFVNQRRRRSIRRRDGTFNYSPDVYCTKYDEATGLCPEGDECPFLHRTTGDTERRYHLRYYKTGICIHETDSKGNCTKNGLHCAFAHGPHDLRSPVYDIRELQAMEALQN

B1: chr11:46405157:46405158:+_ENSG00000110492_ENST00000395566|hu_hu|hu_hu_hu_mus_False|48_108 (ssRNA)
RNA: GGGAGUUCUACAGUCCGACGAUCCCCUUAGGGGUGGGGGCACUUGGUGUGGGCGUGAGAGGACAGGCGUGAUUGACAGAGCUGACAAGCAGACAGAAGGCACUGGUGGGUUAUAUCUUGGGCCUGUGGGAGAGGAGGGCUCCGCAACAGAGGAUUGAGCAUCA
B2: 21628483_21628693_1543_CDS_ENSG00000004700_ENST00000444129|human|control|control (ssRNA)
RNA: GGGAGUUCUACAGUCCGACGAUCAAUUCCCAUACCAAAUGCAACAGUUGCCACUACUACCUGAAUUUCAUUGGCUGACCAUUUUCUAUGAACUGUGGUCUUAUCUUCUGGCUCCAAAUUGGCAUGGUAAGCACCUGCAUGAAUCAACAGAGGAUUGAGCAUCA
B3: chr15:52350861:52350862:+_ENSG00000069956_ENST00000261845|hu_hu|motif|central (ssRNA)
RNA: GGGAGUUCUACAGUCCGACGAUCUGGAAUUACGCUGAGAAGCUCCUGACGAUCUUCCUCAUGUACAACAGGAAUAGAUUCGGAAAUCAGCUGCAUCUGUUCAAGUUCAUGUGCACCUGCAAAAAGGGUUUUACCAGUCAGCAUCAACAGAGGAUUGAGCAUCA
B4: chr22:32879901:32879902:+_ENSG00000100225_ENST00000397426|hu_mus|hu_hu_hu_mus_False|1_8 (ssRNA)
RNA: GGGAGUUCUACAGUCCGACGAUCCUCUUCCAUACUCAUGGCAUCCUGAAUUGACUCAGCUUCAACAUUUUGACUAGGCCCUUCCAUACUGUCAUCAGUCCAGGCAUCAAAUGGGGUGGCCUGUCCUUGGAAUGAAUCACUUGGCAACAGAGGAUUGAGCAUCA
B5: chr10:70097624:70097625:+_ENSG00000096746_ENST00000354695|hu_hu|motif|central (ssRNA)
RNA: GGGAGUUCUACAGUCCGACGAUCGUCCAUCGUCAAUGUUAUCCCAUUUGGCACGAUUUCCAACCCUUGAAAGAACUGAACGGUUUCCUCUUUGCUGCAACCAAAUGGUAGUCCACGAAGUCGUACUGUCCCAUCACUAGCGUCCAACAGAGGAUUGAGCAUCA
B6: chr2:32640116:32640117:+_ENSG00000115760_ENST00000421745|hu_hu|motif|central (ssRNA)
RNA: GGGAGUUCUACAGUCCGACGAUCUUCUGAUAUACUUUCACCCUGAGUUCUGCUUAAACCAUCCAGUGACCUGUGAGAAUUACGGCGGAUGGGUGAGGUAGCAGGAGAUUUAUAUGUUAAUAAACCUCCAGCUAAUAAACAUGGCAACAGAGGAUUGAGCAUCA

This test concerns the target T1, UNK ZnF1-3. Description: nsRBNS (natural sequence RNA bind-n-seq); RBNS binding buffer (assumed for nsRBNS): 25 mM Tris pH 7.5, 150 mM KCl, 3 mM MgCl2, 0.01% Triton X-100, 500 ug/ml BSA, 20 U/ml SUPERase-In, 4 C; UNK is unkempt and MSI1 is Musashi-1; names of the RNAs are library labels; protein concentration not given here; high values mean tight binding.
B1 registered a binding signal of 2.78 enrichment R.
In turn, B2 returned a binding signal of 0.813 enrichment R.
For B3, the binding signal was 0.846 enrichment R.
B4 had a binding signal of 1.01 enrichment R.
As to B5, the binding signal was found to be 0.629 enrichment R.
The same measure for B6: 0.773 enrichment R.
